# Measured values published in the supplement of paper PMC3334620.
# In all, about 33,000 sequences were measured (“E-score (-0.5 to 0.5)”: median about -0.04, highest 2% from about 0.36 on). Some of the results follow.
# Molecular target: T1, Hmlalpha2 (UniProt P0CY09)
# T1 sequence: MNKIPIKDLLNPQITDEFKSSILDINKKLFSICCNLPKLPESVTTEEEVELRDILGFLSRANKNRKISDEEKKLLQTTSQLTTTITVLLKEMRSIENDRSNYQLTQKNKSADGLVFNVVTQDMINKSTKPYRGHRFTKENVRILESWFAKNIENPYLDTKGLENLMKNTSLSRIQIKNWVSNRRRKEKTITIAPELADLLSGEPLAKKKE
# Test: PBM E-score (8-mer binding enrichment) (E-score (-0.5 to 0.5)); higher = stronger / more preferred TF binding; most listed sequences are background and not binding sites
# Conditions: protein concentration: 200 nM; construct: GST-full length
# Experimental: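 Universal 'all 10-mer' protein binding microarrays (Agilent AMADID 015681) probed with GST-tagged S. cerevisiae TFs (full-length or DBD) made by in vitro transcription/translation (PURExpress), about 100-200 nM. Bound TF was detected with fluorescent anti-GST. Each ungapped 8-mer (which stands for itself and its reverse complement) is scored by the PBM enrichment score (E-score), a modified Wilcoxon-Mann-Whitney statistic from -0.5 to +0.5, computed with the Universal PBM Analysis Suite. Scale: above 0.35 generally sequence-specific binding.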
row,Sequence,PBM E-score
1,GGATCCCA,-0.189
2,TCAATGAA,0.0206
3,AGACATAG,0.0797
4,ATTGCGCC,-0.128
5,AGCGGCTA,-0.0688
6,CCGCTGAG,-0.242
7,GGGGGGAC,-0.232
8,ACTTGGAC,0.0824
9,ACCTTCTC,-0.141
10,ACCTGCCG,-0.266
11,CAGTGATG,-0.04
12,AAAAAATC,0.0267
13,GTCAGGCA,-0.0798
14,CAGTCGGC,-0.231
15,ACAAAGAG,-0.0164
16,ATCTACGG,0.0209
17,CGGATACG,-0.0083
18,CCTCGTAG,0.039
19,GTACTTGA,0.208
20,CGCGGCAA,-0.0248
21,ACTACATG,0.43
22,ATTTCATA,0.113

row,Sequence,PBM E-score
1,AGTTCGTG,0.149
2,CGTTGCTA,0.134
3,CGTGTTGA,0.446
4,CTTAACGA,0.0642
5,AGCTATCG,-0.139
6,AGCTCACT,-0.0714
7,CCAGCCAA,-0.128
8,AGGTGCCG,-0.232
9,GCCGAAGC,-0.279
10,CCGTAGAG,-0.221
11,ATGCCCAG,-0.0963
12,CAGTAAGC,-0.0712
13,CGCTAAAC,0.0834
14,CGGGCATC,-0.287
15,CGGAAGTA,-0.0569
16,GATAATAA,-0.0459
17,CCCCACCG,-0.335
18,GATATTGC,-0.12
19,AATGAGCA,0.00557
20,AGCCCCAG,-0.32
21,CGTTCTTC,-0.049
22,GCGAAGAC,-0.0503

row,Sequence,PBM E-score
1,GAAAACCC,-0.0923
2,GTTCACCA,0.0144
3,AATTCATC,-0.151
4,ACGGGAGA,-0.138
5,ATTCAAAC,0.2
6,CCCAACCA,0.0379
7,ACAGGTTA,0.19
8,AGTAGTCG,0.0387
9,ATGTCCAA,0.116
10,TATGCTCA,0.0888
11,TGCGTAAA,0.441
12,CCTTGCAA,-0.176
13,GCTGTGAA,0.0585
14,AGTCCGAA,0.0171
15,ATAGTTGG,-0.128
16,GTGACGAA,0.00439
17,ACCGGGAC,-0.0952
18,CCCAAGGG,-0.389
19,AATAAGAG,-0.201
20,AGGAGTAC,-0.0058
21,ACCAATGA,-0.0683
22,CACCATTC,-0.112

row,Sequence,PBM E-score
1,AATTTTAT,0.191
2,ACCATGCT,0.0386
3,CAAGTTTC,0.0425
4,CTAGCTGC,-0.142
5,CCGCCCTC,-0.231
6,GCACTAGC,-0.195
7,AGTGCCAT,-0.0775
8,GACCAATA,0.0238
9,GGCTGCTA,-0.0801
10,CCGTCGGA,-0.122
11,AGAGCAGC,-0.132
12,TCCATTCA,-0.0303
13,CAACTCGG,-0.273
14,ACCCACAA,0.0627
15,GACTGACC,-0.192
16,AGCGGTCG,-0.31
17,ATGTTCTA,0.11
18,AAACTTGC,0.082
19,ACCTCCCA,-0.221
20,ATACGTCA,0.197
21,ACCAGCCA,-0.0964
22,ATCGGCCA,-0.243

row,Sequence,PBM E-score
1,CACGTACC,0.0169
2,CGTGTCAC,0.309
3,GACGACGC,-0.0038
4,AAGGCATT,-0.0698
5,CCTTATTA,0.0487
6,CAGGACTC,-0.099
7,AAAGGTGT,-0.00838
8,AATTGACT,0.0311
9,ACCCACTC,-0.0487
10,CCCCAGAG,-0.309
11,CGCTAAGA,-0.0842
12,ATGCATAG,0.0358
13,GCGTAAGC,0.183
14,CCGTGTAG,0.452
15,CAGCTATA,-0.0091
16,CGAATCAA,0.162
17,CGCGTGCA,-0.0161
18,CTCAGTCC,-0.198
19,CAACCATA,-0.0287
20,CCTTGCCA,-0.119
21,ATACTAAG,0.0862
